We go through 44 compounds from PMC4336329 (PLoS ONE, 2015).

About 2,200 (0.71%) of roughly 310,000 compounds showed an effect of 50% or more. Effects have a minus sign here. Some of the results follow.

In this experiment the target is human ether-à-go-go-related gene (hERG) potassium channel (human, UniProt Q12809). Description: primary screen, population patch clamp on CHO cells stably expressing hERG.
human ether-à-go-go-related gene (hERG) potassium channel, sequence (Q12809 whole entry, looked up): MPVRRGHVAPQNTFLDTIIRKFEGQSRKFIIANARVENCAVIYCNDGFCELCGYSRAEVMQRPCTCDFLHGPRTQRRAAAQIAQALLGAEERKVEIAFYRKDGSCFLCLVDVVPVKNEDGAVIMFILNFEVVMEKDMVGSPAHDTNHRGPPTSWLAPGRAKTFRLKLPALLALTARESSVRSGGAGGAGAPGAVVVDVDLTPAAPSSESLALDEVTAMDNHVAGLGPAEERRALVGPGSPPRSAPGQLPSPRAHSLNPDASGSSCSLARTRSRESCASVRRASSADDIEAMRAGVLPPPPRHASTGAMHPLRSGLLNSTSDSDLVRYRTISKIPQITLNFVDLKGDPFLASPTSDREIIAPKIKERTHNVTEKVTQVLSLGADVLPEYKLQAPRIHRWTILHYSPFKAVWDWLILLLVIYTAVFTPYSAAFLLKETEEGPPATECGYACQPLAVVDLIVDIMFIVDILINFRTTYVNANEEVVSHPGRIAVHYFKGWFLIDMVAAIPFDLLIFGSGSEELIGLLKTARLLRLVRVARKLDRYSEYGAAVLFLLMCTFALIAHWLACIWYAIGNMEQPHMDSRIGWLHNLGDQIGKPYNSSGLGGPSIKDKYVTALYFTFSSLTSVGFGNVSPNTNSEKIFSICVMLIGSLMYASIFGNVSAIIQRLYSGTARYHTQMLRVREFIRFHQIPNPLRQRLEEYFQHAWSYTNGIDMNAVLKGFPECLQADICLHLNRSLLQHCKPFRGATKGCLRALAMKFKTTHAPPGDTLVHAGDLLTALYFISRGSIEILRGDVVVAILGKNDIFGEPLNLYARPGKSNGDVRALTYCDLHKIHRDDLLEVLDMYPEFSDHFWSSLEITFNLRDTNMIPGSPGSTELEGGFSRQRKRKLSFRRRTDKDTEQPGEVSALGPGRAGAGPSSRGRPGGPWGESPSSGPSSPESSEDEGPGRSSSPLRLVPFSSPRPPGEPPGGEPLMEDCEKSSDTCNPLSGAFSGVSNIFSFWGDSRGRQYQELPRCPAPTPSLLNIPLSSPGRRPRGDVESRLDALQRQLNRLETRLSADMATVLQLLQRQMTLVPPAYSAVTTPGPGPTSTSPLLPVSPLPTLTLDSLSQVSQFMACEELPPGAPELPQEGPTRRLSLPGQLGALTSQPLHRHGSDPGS
For `O=C(Nc1ccccc1Cl)C1CC(=O)N(c2ccccc2)C1` (centres unmarked), the “hERG current change (%, negative = inhibition) at 1uM” value is 11.9%.
To `CCOc1c(Br)cc(C(=O)OCC(=O)N2CCc3ccccc3C2)cc1OC` belongs -2.17%; to `O=C(NC1(C(F)(F)F)C(=O)Nc2c1c(=O)[nH]c(=O)n2-c1ccccc1)c1cccnc1` (centres unmarked), 19%.
To `O=C(c1ccco1)N1CCn2cccc2C1c1ccccc1` (centres unmarked) belongs 1.77%.
To `O=C1CN(S(=O)(=O)c2cccc(C(=O)O)c2)c2ccccc2N1` belongs 11.3%; to `O=C(CN1CCCCCC1)Nc1ccc([N+](=O)[O-])cc1Cl`, 7.57%; to `COCc1[nH][nH]c(=O)c1/C=N/N1CCOCC1`, 7.34%.
`Nc1cc2sc(-c3ccc(C(=O)O)cc3)nc2cc1Cl`: the “hERG current change (%, negative = inhibition) at 1uM” value stood at 17.5%.
On to `CCOC(=O)C1CCCN(S(=O)(=O)c2ccc(-n3cnnn3)c(C)c2)C1` (centres unmarked), for which the “hERG current change (%, negative = inhibition) at 1uM” value worked out at 2.97%.
Then `CC(C)C(=O)N1CCN(c2ccc(NC(=O)c3ccc4c(c3)OCCO4)cc2)CC1`, with 12.2%; and `Cc1sc2ncnc(NC(C)C(=O)O)c2c1C` (centres unmarked), with 11.8%.
To `O=C(CN1CC(c2ccccc2)CC1=O)N/N=C/c1cc(Br)ccc1O` (centres unmarked) belongs -2.4%; to `C=CCn1c(=O)c(C(=O)NCc2ccc3c(c2)OCO3)c(O)c2ccccc21`, 17.6%.
Then `CC1CC(C)CN(S(=O)(=O)c2cccc(C(=O)N3C(=O)c4cccc(N)c4C3=O)c2)C1` (centres unmarked), with 6.81%; and `COCCNC(=O)C(=O)NCCN1CCOCC1`, with 11.6%; and `C=C1CCN([C@@H](CC(C)C)C(=O)NCc2ccc(Cl)c(Cl)c2)S(=O)(=O)c2ccccc21`, with 14.9%.
Turning to `CC1(C)S[C@@H]2[C@H](NC(=O)COc3ccccc3)C(=O)N2C1C(=O)OCc1cc2ccccc2n1S(=O)(=O)c1ccccc1` (some centres unmarked), the “hERG current change (%, negative = inhibition) at 1uM” value turned out to be 3.86%.
Then `O=C(Oc1cc(=O)oc2c1c(=O)n1c3c(cccc23)CC1)c1ccc(F)cc1`, with 4.95%; and `COc1cc(C2C3=C(CC(C)(C)CC3=O)NC3=C2C(=O)c2ccccc23)ccc1O` (centres unmarked), with 12.3%.
To `Cc1cc(C)cc(N(CCC(=O)O)S(=O)(=O)c2ccc3ccccc3c2)c1` belongs 9.76%; to `O=C(CSc1nnc(COc2ccccc2F)n1-c1ccccc1)NC1CCS(=O)(=O)C1` (centres unmarked), 12.2%; to `COc1ccc(NC(=O)COc2cccc3c2CCN(Cc2cccnc2)C3=O)cc1`, -6.83%.
To `COc1ccc(C(=O)n2cc(C(=O)c3cc(C)ccc3O)cn2)cc1` belongs 4.48%; to `O=C(N1CCOCC1)N1c2ccccc2Sc2ccccc21`, 3.55%.
As to `COC(=O)C1CCN(C(=O)Cc2ccc(C)cc2)CC1`, the “hERG current change (%, negative = inhibition) at 1uM” value is listed as 10.2%.
Then `S=c1[nH]nc(-c2ccc3ccccc3n2)n1-c1ccc(Cl)cc1`, with 7.07%; and `CCOc1ccc(-n2c(C)c(C(C)=O)c(C(C)=O)c2C)cc1`, with 2.39%; and `Cc1cc(C)cc(NC(=S)NCc2ccc(S(N)(=O)=O)cc2)c1`, with 13.4%.
In the case of `CC1CCN(S(=O)(=O)c2cc(Cl)ccc2Br)CC1`, the “hERG current change (%, negative = inhibition) at 1uM” value is on record as 6.28%.
Then `Cc1cccc(C)c1OP(N)(=O)OCC(F)(F)F` (centres unmarked), with 3.53%; and `O=C(CNC(=O)c1ccccc1)N/N=C/c1cccs1`, with 1.92%; and `O=S(=O)(NCCc1ccncc1)c1ccc(F)cc1`, with 13.6%.
To `O=c1[nH]c(N2CCc3ccccc32)nc2c1CCCC2` belongs 2.53%; to `CC(=O)c1c(C)oc2c1C(=O)c1ccccc1C2=O`, 4.13%.
Then `COc1ccc(-c2noc(-c3ccoc3C)n2)cc1`, with 13.1%; and `COC(=O)C1=C(C)NC2=C(C(=O)CC(C)(C)C2)C1c1cn(Cc2ccc(Br)cc2)nc1-c1ccccc1` (centres unmarked), with -11%; and `CN1CCN(C2Cc3ccc(F)cc3Sc3cc(F)c(Cl)cc32)CC1.CS(=O)(=O)O.O` (centres unmarked), with -15.5%.
Take `CCc1nnc(NC(=O)c2cc(Cl)ccn2)s1`: the “hERG current change (%, negative = inhibition) at 1uM” value came out at 8.93%.
`COc1ccc(C2C(C(=O)N3CCCCC3)CC(=O)N2c2ccc(OC)cc2)cc1` (centres unmarked): the “hERG current change (%, negative = inhibition) at 1uM” value is given as -10.5%.
As to `CCc1cccc(C)c1NC(=O)c1ccc2c(c1)CCN2S(C)(=O)=O`, the “hERG current change (%, negative = inhibition) at 1uM” value was 6.45%.
Then `COc1cc(NC(=S)N2CCN(S(=O)(=O)c3ccc(F)cc3)CC2)cc(OC)c1`, with 17.7%; and `O=C(CSc1ncnc2ccccc12)NCC(=O)c1ccccc1`, with 4.86%; and `Cc1ccc(C(=O)/C=C/Nc2ccccn2)cc1`, with -6.06%.
Then `Cn1ncc2c(c(SCc3ccc(Cl)cc3Cl)nn2C)c1=O`, with 14.1%.
